This note sets out measurements from PubChem BioAssay AID1745853 (National Center for Advancing Translational Sciences (NCATS), 2022).

Structures are written as SMILES. The list shows a part of the results. Shown are side measurements of this screen, not its main read-out; they come without a call.

What all share (experiment): Primary Screen for Target Class Profiling of Small Molecule Inhibitors of Methyltransferases
The target of experiment [1] is Glycine N-methyltransferase (Homo sapiens) (UniProt Q14749). The following applies: purified enzyme, MTase-Glo SAH luminescence; measured here: GNMT inhibition; at 40 µM; stronger effect = lower value. Summed up: (§1)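 Each enzyme was reacted with SAM and its substrate, with compounds tested once at 40 uM; SAH formed was read by MTase-Glo luminescence.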
Experiment [2] addresses Guanidinoacetate N-methyltransferase (Homo sapiens) (UniProt Q14353). The following applies: purified enzyme, MTase-Glo SAH luminescence; measured here: GAMT inhibition; at 40 µM; stronger effect = lower value. Summed up: as §1
Experiment [3] has as its target Histamine N-methyltransferase (Homo sapiens) (UniProt P50135). The following applies: purified enzyme, MTase-Glo SAH luminescence; measured here: HNMT inhibition; at 40 µM; stronger effect = lower value. Summed up:
as §1

Experiment [4] concerns the target Nicotinamide N-methyltransferase (Homo sapiens) (UniProt P40261). To be noted: purified enzyme, MTase-Glo SAH luminescence; measured here: NNMT inhibition; at 40 µM; stronger effect = lower value. Summed up:
as §1

Experiment [5] has as its target Phenylethanolamine N-methyltransferase (Homo sapiens) (UniProt P11086). To be noted: purified enzyme, MTase-Glo SAH luminescence; measured here: PNMT inhibition; at 40 µM; stronger effect = lower value. Summed up: as §1
% is scaled to controls: 0 for no effect and ±100 for the full control effect.

In the case of `CCCCN1C(=O)c2cc(C(=O)Nc3ccccc3Br)nn2CC1(C)C(=O)NC1CCCC1` (stereo not drawn), the activity change, negative = inhibition is 4.67% in experiment [1]; 0% in experiment [2]; -10.5% in experiment [3]; 1.37% in experiment [4]; 8.49% in experiment [5].
`Cc1ccc(S(=O)(=O)N(C)C2CCc3ccccc32)cc1` (stereo not drawn): the activity change, negative = inhibition in experiment [1] is -2.67%; in experiment [2] it was 2.23%; in experiment [3], -0.297%; in experiment [4], -14.1%; in experiment [5], -0.933%.
On to `Cc1ccc(-c2ncccc2CNS(=O)(=O)c2cc(F)ccc2C)cc1`, for which the activity change, negative = inhibition in experiment [1] was -2.29%; in experiment [2], 6.51%; in experiment [3], -5.11%; in experiment [4], -6.66%; in experiment [5], -3.02%.
Consider `NC(=O)c1nnn([C@H]2CCN3C(=O)[C@@H](Cc4ccccc4)NC(=O)[C@@H]3C2)c1C(N)=O`, for which the activity change, negative = inhibition was -0.953% in experiment [1]; -2.11% in experiment [2]; 0.617% in experiment [3]; -7.92% in experiment [4]; -0.72% in experiment [5].
Taken in the same sequence, the figures for `COCc1nnc2n1CCC(NC(=O)Cn1nc(C(F)(F)F)cc1C)CC2` (stereo not drawn) were 1.71%, -1.5%, 1.35%, 2.38% and 14.2%.
For `NC1CCC(Nc2cc(-c3cccc(NCc4cccc(F)c4)n3)c(Cl)cn2)CC1` (stereo not drawn), the activity change, negative = inhibition in experiment [1] was -32.4%; in experiment [2] it was 12.4%; in experiment [3] it was 3.61%; in experiment [4], -39.7%; in experiment [5], -4.7%.
As to `COCCN1C(=O)c2cc(-c3ccccc3)nn2CC1(C)C(=O)NCc1ccccc1` (stereo not drawn), the activity change, negative = inhibition in experiment [1] worked out at 2.87%; in experiment [2] it was 5.06%; in experiment [3], 8.76%; in experiment [4], 4.7%; in experiment [5], 1.58%.
Consider `O=C(OC[C@H]1O[C@H](O[C@]2(CO)O[C@H](CO)[C@@H](O)[C@@H]2O)[C@H](O)[C@@H](O)[C@@H]1O)c1ccccc1`, for which the activity change, negative = inhibition in experiment [1] is 3.84%; in experiment [2], 8.64%; in experiment [3], 4.9%; in experiment [4], -4.77%; in experiment [5] it was 5.73%.
Taken in the same sequence, the figures for `COc1cc2c(cc1OC)CC(=O)N(CCCNC[C@H]1Cc3cc(OC)c(OC)cc31)CC2` were -4.92%, -2.87%, -2.8%, -11.5% and 1.6%.
With `CC[C@H]1OC(=O)[C@H](C)[C@@H](O[C@H]2C[C@@](C)(OC)[C@@H](O)[C@H](C)O2)[C@H](C)[C@@H](O[C@@H]2O[C@H](C)C[C@H](N(C)C)[C@H]2O)C(C)(O)C[C@@H](C)/C(=N\OCOCCOC)[C@H](C)[C@@H](O)[C@]1(C)O` (stereo partly drawn), the activity change, negative = inhibition is 13.6% in experiment [2], -3.74% in experiment [4] and 4.33% in experiment [5].
`Cc1csc(N(C(=O)CSc2ccc(-c3ccccc3)nn2)C2CC2)n1`: the activity change, negative = inhibition in experiment [1] is -6.88%; in experiment [2], -5.55%; in experiment [3], -8.17%; in experiment [4], -21.8%; in experiment [5], -11.7%.
For `COc1cccc(CNC(=O)CSc2nnc3n(CC(C)C)c(=O)c4ccccc4n23)c1`, the activity change, negative = inhibition in experiment [1] is 7.24%; in experiment [2] it was 0%; in experiment [3], 10.9%; in experiment [4], 9.32%; in experiment [5], 6.64%.
Taken in the same sequence, the figures for `COc1ccccc1OCCNCC(O)COc1cccc2[nH]c3ccccc3c12` (stereo not drawn) were 0.121%, 16.3%, -1.43%, -7.32% and -10.9%.
Taken in the same sequence, the figures for `O=C(Cn1ccc2cc(S(=O)(=O)N3CCCCC3)ccc21)NC1CCCc2ccccc21` (stereo not drawn) were 5.15%, 1.47%, 3.3%, 1.64% and -0.078%.
In the case of `Cc1ccc(C)c(N2C(=O)c3cc4occc4n3CC2(C)C(=O)NC2CCCCCC2)c1` (stereo not drawn), the activity change, negative = inhibition in experiment [1] was -1.45%; in experiment [2], 0%; in experiment [3], -8.94%; in experiment [4], -3.41%; in experiment [5] it was -1.36%.
As to `CC(C)c1nc(CN(C)C(=O)N[C@H](C(=O)N[C@@H](Cc2ccccc2)C[C@H](O)[C@H](Cc2ccccc2)NC(=O)OCc2cncs2)C(C)C)cs1`, the activity change, negative = inhibition was -3.31% in experiment [1]; 0.829% in experiment [2]; 7.85% in experiment [3]; -20.7% in experiment [4]; -2.22% in experiment [5].
Taken in the same sequence, the figures for `CC1c2cccn2-c2sc3c(c2CN1C(=O)NC1CCCCC1)CCN(C)C3` (stereo not drawn) were -4.24%, 2.13%, -0.266%, -3.6% and -0.894%.
Taken in the same sequence, the figures for `CC(C)(C)c1cc2n(n1)CC(C)(C(=O)NCc1ccccc1)N(c1ccc(F)cc1F)C2=O` (stereo not drawn) were 8.92%, 1.98%, 10.1%, 8.37% and 4.96%.
Taken in the same sequence, the figures for `CN(Cc1cccs1)Cc1cccn1C` were -12.2%, -7.99%, -29.2%, -8.69% and -12.1%.
Take `COc1ccccc1N1CCN(CC[C@@H]2CC[C@H](O)[C@@H](C(=O)Nc3ccccc3)O2)CC1`: the activity change, negative = inhibition in experiment [1] was -4.42%; in experiment [2] it was -5.33%; in experiment [3] it was -2.68%; in experiment [4], -9.08%; in experiment [5] it was -7.39%.
Taken in the same sequence, the figures for `C/C(CO)=C1/CCC23COC(C2)C(O)(C(=O)O)CCC13` (stereo not drawn) were -1.91%, -7%, 4.55%, -17.5% and -4.41%.
Taken in the same sequence, the figures for `CCCCc1nn(CC(=O)N2CCOC(c3ccccc3)C2)c(=O)n1CC` (stereo not drawn) were -0.943%, -0.219%, -1.52%, 0.111% and -5.04%.
Taken in the same sequence, the figures for `CCCOC(=O)c1c(-c2ccccc2)nc(CC)c(C(=O)SCC)c1CCC` were -5.29%, 4.03%, -1.73%, -9.13% and 3.5%.
As to `O=C(CNC(=O)c1ccc(-c2cccc(C(F)(F)F)c2)cc1)NCC(F)(F)F`, the activity change, negative = inhibition is -0.635% in experiment [1]; -3.28% in experiment [2]; -0.99% in experiment [3]; -2.47% in experiment [4]; 3.85% in experiment [5].
For `CC(C)NC(=O)NC[C@H]1OC[C@@H](NCc2ncc[nH]2)[C@@H]1O`, the activity change, negative = inhibition in experiment [1] was 1%; in experiment [2] it was 1.61%; in experiment [3] it was 2.88%; in experiment [4], 0.707%; in experiment [5] it was 16.6%.
For the compound `CCC(C)CC(=O)OC1C(=O)C(CO)=CC(O)C1C(C)C` (stereo not drawn), the activity change, negative = inhibition in experiment [1] was -36.4%; in experiment [2] it was -8.31%; in experiment [3] it was -9.27%; in experiment [4], -29.6%; in experiment [5], -4.67%.
Regarding `COCCn1nnnc1C1CC2(CCOCC2)C(=O)N1CCc1ccc(OC)c(OC)c1` (stereo not drawn), the activity change, negative = inhibition in experiment [1] is -0.147%; in experiment [2] it was 2.06%; in experiment [3], 0.479%; in experiment [4], -0.431%; in experiment [5], 2.64%.
As to `O=C(NCc1ccc2c(c1)OCO2)c1sc(=S)n2c1[nH]c(=O)c1cc(Cl)ccc12`, the activity change, negative = inhibition was -28.7% in experiment [1]; 0.844% in experiment [2]; -1.19% in experiment [3]; -41.4% in experiment [4]; -28.3% in experiment [5].
Taken in the same sequence, the figures for `Cc1ccc(CNC(=O)C2(C)Cn3nc(C(=O)NCCN(C)C)cc3C(=O)N2C)cc1` (stereo not drawn) were -0.087%, 1.28%, -2.78%, 1.93% and -0.846%.
As for `CCN(C1CCOCC1)C1CN(C(=O)c2ccccn2)C1`, the activity change, negative = inhibition in experiment [1] is -1.24%; in experiment [2], 7.93%; in experiment [3], 1.34%; in experiment [4], 0.589%; in experiment [5], -0.819%.
